# Test results: the supplement of paper PMC3334620
# Over roughly 33,000 sequences, “E-score (-0.5 to 0.5)” has its median near -0.043; the highest 2% begin near 0.37. The list shows a part of the results.
# Molecular target: T1, Upc2 (UniProt Q12151)
# T1 sequence: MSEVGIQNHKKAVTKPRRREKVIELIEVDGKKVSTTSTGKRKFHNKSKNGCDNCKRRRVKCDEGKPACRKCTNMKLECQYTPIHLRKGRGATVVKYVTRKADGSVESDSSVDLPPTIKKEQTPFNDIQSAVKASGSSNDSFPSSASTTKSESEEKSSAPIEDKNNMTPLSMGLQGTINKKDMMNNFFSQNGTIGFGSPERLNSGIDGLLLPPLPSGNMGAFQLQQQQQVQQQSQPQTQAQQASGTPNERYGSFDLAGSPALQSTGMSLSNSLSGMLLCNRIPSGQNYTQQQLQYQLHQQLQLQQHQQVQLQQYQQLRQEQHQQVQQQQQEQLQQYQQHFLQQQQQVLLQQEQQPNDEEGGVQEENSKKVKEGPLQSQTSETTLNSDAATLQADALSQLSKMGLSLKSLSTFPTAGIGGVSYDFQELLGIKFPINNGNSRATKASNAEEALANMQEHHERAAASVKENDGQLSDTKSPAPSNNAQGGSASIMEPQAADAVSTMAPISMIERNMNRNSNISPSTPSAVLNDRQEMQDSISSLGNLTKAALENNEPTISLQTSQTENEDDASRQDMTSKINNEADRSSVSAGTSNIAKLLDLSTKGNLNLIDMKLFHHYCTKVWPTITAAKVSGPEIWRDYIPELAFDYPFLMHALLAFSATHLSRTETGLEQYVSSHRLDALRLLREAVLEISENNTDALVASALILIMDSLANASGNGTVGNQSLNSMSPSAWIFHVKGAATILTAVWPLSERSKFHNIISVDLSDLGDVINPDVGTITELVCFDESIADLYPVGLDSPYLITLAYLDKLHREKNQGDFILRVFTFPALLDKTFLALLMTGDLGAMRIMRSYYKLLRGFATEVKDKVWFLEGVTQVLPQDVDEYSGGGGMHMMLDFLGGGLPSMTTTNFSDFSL
# Assay: PBM E-score (8-mer binding enrichment) (E-score (-0.5 to 0.5)); higher = stronger / more preferred TF binding; most listed sequences are background and not binding sites
# Settings: protein concentration: 200 nM; construct: GST-full length
# Outline: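 Full-length yeast transcription factors or their DNA-binding domains, GST-tagged and expressed with PURExpress, were applied at about 100-200 nM to universal all-10-mer Agilent arrays. These arrays had been made double-stranded by primer extension on fresh or once-stripped slides. Detection used fluorescent anti-GST, normalisation used masliner, and E-scores for ungapped eight-base words pooled with reverse complements came from the Universal PBM Analysis Suite.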
row,Sequence,PBM E-score
1,AGGCGTCC,-0.22
2,GGCGGAAC,-0.105
3,CATCCAGC,0.0575
4,CCATGGCC,-0.288
5,AACAAAAG,0.0842
6,GAGCTAGA,-0.109
7,CGTGTATA,0.284
8,ATAGCGCA,0.0791
9,AAGCGAAG,0.309
10,ATGTCTTG,-0.0852
11,AGTGAATG,-0.0487
12,ACAATCAT,-0.208
13,GCGCAAGA,-0.0728
14,TACGATCA,0.422
15,CCCGAACC,0.129
16,CAAACCAG,-0.0251
17,CCTAAGCC,-0.291
18,CACACGCA,-0.0579
19,CACACCGG,-0.22
20,CCGGTGCG,0.0885
21,CAGTGGTC,0.0415
22,GGTCCTGA,-0.0501

row,Sequence,PBM E-score
1,GGTAACAC,-0.0963
2,CCTGGTAG,-0.28
3,CCTTATAC,0.353
4,CAGTCACG,-0.282
5,ACCGTCCG,-0.0883
6,AATTTTCA,-0.00279
7,GACACTCA,-0.183
8,CCACTCTA,-0.247
9,AAATATTT,0.131
10,CTGCTGGC,-0.198
11,TAATGCGA,0.245
12,CTTTCACC,0.0779
13,ATATACCG,0.194
14,CGCAGCTA,-0.151
15,AGTACACC,0.0771
16,ACTCCACT,-0.196
17,CTGCCAGA,-0.175
18,ACAGCTTG,-0.0169
19,CTTGAACA,0.0104
20,CAAGAGCC,-0.285
21,AAGCCGGA,-0.126
22,AACGTCGC,0.1

row,Sequence,PBM E-score
1,CACTGGGC,-0.242
2,GCTAATCC,-0.025
3,CAAGATCG,0.249
4,CTGTGGAA,-0.176
5,CTGTAAGC,-0.0287
6,GGTGCATA,-0.0936
7,TTGAGAAA,-0.0809
8,GCGGACCA,-0.056
9,ATGTAATA,0.0423
10,TACAAGGA,0.0076
11,GGCTCCTA,-0.0529
12,AAATTCTT,-0.114
13,CTTCACCC,0.0251
14,TATCTGCA,-0.0203
15,ACCTCCCG,0.0563
16,AATCCGGT,0.139
17,CAGGGGAC,-0.329
18,CGATGGCG,-0.00074
19,GACTAGAC,-0.125
20,CAAACACG,0.146
21,TGCGCTAA,0.161
22,GCCGTTCC,0.348

row,Sequence,PBM E-score
1,GAAACCAC,-0.144
2,GTTACGAA,0.409
3,ACGTGCAA,0.0824
4,CAGCCCGC,-0.382
5,AAACAATA,0.0112
6,GTCTCGAA,-0.0265
7,AGTCTCTC,-0.168
8,ATTGGCAG,-0.183
9,CAGCAAAG,-0.0457
10,TATCTTGA,-0.131
11,ACGCTGCC,-0.0218
12,CCCAAGAA,-0.243
13,ATAACTCG,0.167
14,GTTATAAC,0.028
15,ACCTTACT,0.146
16,TAAGGCGA,0.133
17,GATGGATA,-0.127
18,AATGCGAA,0.191
19,GTACGTAA,0.337
20,AACAGAGT,0.126
